Screen size: about 310,000 compounds; about 14,000 (4.5%) showed an effect of 50% or more. The effect is printed as a negative number. Some of the results follow.
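Further: peak tail current of the secondary pulse compared with the same well before compound.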

Chain of human ether-à-go-go-related gene (hERG) potassium channel (Q12809 whole entry, looked up): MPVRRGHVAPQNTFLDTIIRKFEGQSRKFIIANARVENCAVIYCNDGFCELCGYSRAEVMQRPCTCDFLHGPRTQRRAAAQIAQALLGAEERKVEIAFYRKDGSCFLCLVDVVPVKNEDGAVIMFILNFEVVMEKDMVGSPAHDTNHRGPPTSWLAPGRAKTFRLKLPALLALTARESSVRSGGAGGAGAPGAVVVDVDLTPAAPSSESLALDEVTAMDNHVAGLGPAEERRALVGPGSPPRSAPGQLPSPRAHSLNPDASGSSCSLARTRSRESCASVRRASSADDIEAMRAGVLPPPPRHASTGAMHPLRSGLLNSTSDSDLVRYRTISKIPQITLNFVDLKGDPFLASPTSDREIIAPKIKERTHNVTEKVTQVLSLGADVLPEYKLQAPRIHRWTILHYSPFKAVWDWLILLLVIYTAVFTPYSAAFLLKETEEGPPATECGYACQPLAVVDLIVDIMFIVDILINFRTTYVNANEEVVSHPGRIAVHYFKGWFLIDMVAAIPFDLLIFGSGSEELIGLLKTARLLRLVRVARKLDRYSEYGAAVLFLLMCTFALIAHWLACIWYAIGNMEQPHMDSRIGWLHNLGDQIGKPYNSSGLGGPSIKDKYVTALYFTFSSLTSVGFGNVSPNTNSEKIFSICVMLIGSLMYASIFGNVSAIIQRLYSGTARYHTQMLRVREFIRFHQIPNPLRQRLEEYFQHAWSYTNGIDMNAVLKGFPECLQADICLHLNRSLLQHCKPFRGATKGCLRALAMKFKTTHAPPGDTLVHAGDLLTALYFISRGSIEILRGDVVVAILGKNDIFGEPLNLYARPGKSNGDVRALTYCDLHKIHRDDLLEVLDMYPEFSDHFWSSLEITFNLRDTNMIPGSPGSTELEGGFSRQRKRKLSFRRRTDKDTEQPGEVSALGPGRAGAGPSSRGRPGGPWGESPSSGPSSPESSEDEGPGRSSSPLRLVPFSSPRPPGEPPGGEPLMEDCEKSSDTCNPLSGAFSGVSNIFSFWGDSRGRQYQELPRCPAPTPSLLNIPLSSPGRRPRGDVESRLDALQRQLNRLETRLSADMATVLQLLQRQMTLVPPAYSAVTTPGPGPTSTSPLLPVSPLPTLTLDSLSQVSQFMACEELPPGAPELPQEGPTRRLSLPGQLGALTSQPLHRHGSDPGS

This assay has as its target human ether-à-go-go-related gene (hERG) potassium channel (human, UniProt Q12809). Kind of assay: primary screen, population patch clamp on CHO cells stably expressing hERG.
In the case of `CN(C)c1nc(OCCNC(=O)COc2ccc(Cl)cc2Cl)nc(N(C)C)n1`, the “hERG current change (%, negative = inhibition) at 10uM” value is recorded as -17.1%.

Regarding `Cc1cc(C)c(NS(=O)(=O)c2ccc3c(c2)n(C)c(=O)n3C)c(C)c1`, the “hERG current change (%, negative = inhibition) at 10uM” value came to 0.287%. Turning to `Cc1cccc(-n2cc(CN(C)Cc3nccn3C)c(-c3cccc(F)c3)n2)c1`, the “hERG current change (%, negative = inhibition) at 10uM” value is listed as -6.01%. Consider `S=C1COC(c2ccccc2)N1c1ccccc1` (stereo not shown), for which the “hERG current change (%, negative = inhibition) at 10uM” value was determined as 5.51%.

In the case of `O=C(NCCCN1CCOCC1)c1cccnc1SCc1ccccc1Cl`, the “hERG current change (%, negative = inhibition) at 10uM” value was -14.6%. As for `CCC(=O)c1ccc(OCC(O)CN2C(=O)NC(C)(C)C2=O)cc1` (stereo not shown), the figure is 16.5%; as for `Cc1cccc(N2CCN(C3=NC(=O)/C(=C\c4cn[nH]c4-c4ccccc4)S3)CC2)c1`, 1.88%. As for `Cc1nc(SCC(=O)N(CC(C)C)C2CCS(=O)(=O)C2)c2ccccc2n1` (stereo not shown), the figure is -3.83%; as for `COC(=O)c1ccc(C(=O)NC(=S)Nc2nc3c(s2)CCCC3)cc1`, 12.8%. As for `CCOC(=O)C1=C(O)c2ccccc2C(=O)/C1=C\c1ccc(C)cc1`, the figure is 15.3%; as for `Cc1cccc(C)c1NC(=O)N1CCC(n2c(=O)[nH]c3ccccc32)CC1`, 10.6%. In the case of `CCCCn1c(SCC(=O)N2CCOCC2)nc2c1c(=O)n(C)c(=O)n2C`, the “hERG current change (%, negative = inhibition) at 10uM” value was -9.25%. Next, `Cc1cccc(C(=O)Nc2ccc(Cl)cc2C(=O)c2ccccc2)c1`: 2.98%; `CC(C)Cn1cc(C(=O)NCc2cccs2)c2c3ccccc3n(C)c2c1=O`: 1.7%; `Cn1c(=O)c2c(nc(N3CCCCCC3)n2CC(O)COc2ccc(Cl)cc2)n(C)c1=O` (stereo not shown): -15.9%. For the molecule `COCCNC(=O)/C(C#N)=C/c1c(N2CCCCCC2)nc2ccccn2c1=O`, the “hERG current change (%, negative = inhibition) at 10uM” value is listed as 7.56%. Next, `CN(c1ccc(O)cc1)c1nc(-c2cccnc2)cs1`: 11.9%; `COc1ccc(NC(=O)COC(=O)CNS(=O)(=O)c2ccc(C)cc2)c(OC)c1`: -5.57%. Next, `Clc1ccc(-c2csc(N/N=C/c3cccnc3)n2)c(Cl)c1`: -11.9%; `O=C(OCc1nc2ccccc2s1)c1cccs1`: 2.91%. Turning to `O=C(CCCc1nc2ccccc2s1)NCc1ccc(F)cc1`, the “hERG current change (%, negative = inhibition) at 10uM” value is given as -37.4%. Regarding `COn1c(-c2ccc(Cl)cc2)nc2ncccc21`, the “hERG current change (%, negative = inhibition) at 10uM” value turned out to be 0.801%. Next, `CN(CC(=O)Nc1ccc(N2CCOCC2)cc1)C(=O)c1ccc(O)c(Cl)c1`: 23.4%. Consider `COc1cc(C)ccc1OCCCOc1cc(C)ccc1Cl`, for which the “hERG current change (%, negative = inhibition) at 10uM” value was -13.9%. Turning to `CC1(c2ccccc2)NC(=O)N(CC(=O)Nc2cc3c(cc2Br)OCCO3)C1=O` (stereo not shown), the “hERG current change (%, negative = inhibition) at 10uM” value is reported as -8.6%. `CCCCCCC(=O)NNC(=O)c1c(O)c2ccccc2n(CC)c1=O`: the “hERG current change (%, negative = inhibition) at 10uM” value is listed as -38%.

Regarding `COc1cccc(N2CCN(C(=O)c3cc4c(OC)c(OC)c(OC)cc4[nH]3)CC2)c1`, the “hERG current change (%, negative = inhibition) at 10uM” value amounted to 9.11%.

As for `CCC(Sc1nc2ncccc2[nH]1)C(=O)NC1CCCC1` (stereo not shown), the “hERG current change (%, negative = inhibition) at 10uM” value came out at 2.8%. Next, `COc1ccc(N2CCN(C(=O)CN(c3ccccc3)S(C)(=O)=O)CC2)cc1`: -7.54%; `NC(=O)C1=C[C@@H](c2ccc(Br)cc2)C[C@@H](OCCCCO)O1`: -13.8%; `COc1cccc(N=NC2C(=O)N(C(N)=S)N=C2C)c1` (stereo not shown): -10.3%. With `CCc1cc2c(=O)[nH]c(Cc3ccc(OC)cc3)nc2s1`, the “hERG current change (%, negative = inhibition) at 10uM” value is listed as 2.16%. As for `CC1Cc2cc(S(=O)(=O)N3CCC(C(=O)N4CCN(c5ccccc5F)CC4)CC3)ccc2N1C(=O)C1CC1` (stereo not shown), the figure is -5.63%; as for `O=C(NC1CCCCC1)c1cc(S(=O)(=O)N2CCOCC2)ccc1Cl`, -2.86%; as for `COc1ccc([C@H]2CC(=O)C=C(c3ccnc4ccc(Cl)cc34)C2)cc1`, -57.6%.

With `COc1cc(CSc2nc(-c3ccccc3)cc(=O)[nH]2)cc(OC)c1`, the “hERG current change (%, negative = inhibition) at 10uM” value was 13.4%. As for `Cc1cc2oc(=O)cc(C)c2cc1NC(=O)CCC(=O)O`, the figure is 7.75%. Take `CCOc1ccc2nc(NC(=O)CSc3nc4c(c(=O)n(C)c(=O)n4C)n3CC)sc2c1`: the “hERG current change (%, negative = inhibition) at 10uM” value is reported as -7.71%.

Turning to `C=CCSc1nc(C)c(CCCC)c(=O)[nH]1`, the “hERG current change (%, negative = inhibition) at 10uM” value is on record as -9.23%.

For the molecule `O=C(CCc1nc2ccccc2c(=O)[nH]1)NNC(=O)COc1ccc(Br)cc1`, the “hERG current change (%, negative = inhibition) at 10uM” value is on record as 6.48%.

With `COc1cc(C(=O)N2CCN(C3CCCCC3)CC2)cc(OC)c1OC.O=C(O)C(=O)O`, the “hERG current change (%, negative = inhibition) at 10uM” value was 2.07%. For `CC(=O)NNc1cc(=O)c2c(=O)n(C)c(=O)n(C)c2[nH]1`, the “hERG current change (%, negative = inhibition) at 10uM” value amounted to 21.9%.

`O=C(COC(=O)c1cccc(S(=O)(=O)N2CCc3ccccc3C2)c1)NCc1ccco1`: the “hERG current change (%, negative = inhibition) at 10uM” value is given as -42.8%. With `Cc1[nH]nc(NNC(=O)c2ccccc2)c1[N+](=O)[O-]`, the “hERG current change (%, negative = inhibition) at 10uM” value came to 11%. As for `Cc1c(C)n(CCO)c2ncnc(Nc3ccc(F)cc3)c12`, the figure is 9.16%; as for `O=C(NCc1ccccn1)c1ccc(OC2CCN(Cc3ccccc3)CC2)cc1`, -10.2%; as for `CC(C)Cc1cc(C(=O)N2CCN(c3ccc(F)cc3)CC2)no1`, -49.2%. With `Cc1ccc(C(=O)OCC(=O)NCCC2=CCCCC2)cc1N`, the “hERG current change (%, negative = inhibition) at 10uM” value is listed as 0.786%. For `Cc1ccc(S(=O)(=O)NC(CC(C)C)C(=O)NCC(c2ccco2)N2CCCCC2)cc1` (stereo not shown), the “hERG current change (%, negative = inhibition) at 10uM” value is -2.3%. For the molecule `O=C(CCc1c[nH]c2ccccc12)OCc1cccc(C(F)(F)F)c1`, the “hERG current change (%, negative = inhibition) at 10uM” value is listed as 11.6%.

As for `CCOc1ccc(C2/C(=C(\O)c3cccc(OC)c3)C(=O)C(=O)N2c2ccccn2)cc1OC` (stereo not shown), the “hERG current change (%, negative = inhibition) at 10uM” value is reported as 11.8%.

For `C[C@@]12C(=O)N(CC3CC3)CC(=O)N1[C@H](/C=C/c1ccccc1)[C@@H]1C(=O)N(c3ccccc3)C(=O)[C@@H]12`, the “hERG current change (%, negative = inhibition) at 10uM” value is on record as -8.29%.

On to `CC1CC(C)CN(CC(=O)c2cccs2)C1` (stereo not shown), for which the “hERG current change (%, negative = inhibition) at 10uM” value was -9.99%. Next, `COCCNc1ccc(-c2nn(C)c(=O)c3ccccc23)cc1[N+](=O)[O-]`: 15.2%; `O=c1c2ccccc2nc(/C=C/c2ccc([N+](=O)[O-])o2)n1CCCO`: -51.7%.

These data come from paper PMC4336329 (PLoS ONE, 2015).
